The supplement of paper PMC11417369
± gives the standard deviation of the averaged measurements. The list shows a part of the results.

Tested on: PfAP2-EXP AP2 domain (GST-tagged)
Experiment: gcPBM binding intensity (ln(normalized median fluorescence intensity)); higher = stronger DNA binding
Summary of the method: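 Plasmodium falciparum DNA-binding domains carrying a GST tag were expressed in E. coli and applied for 1 h, at about 25 μg on average, to an Agilent 4 × 180k array. The array held primer-extended double-stranded 36-bp intergenic genomic probes together with negative controls, and binding took place in 1× PBS with 1% milk, 0.2 mg/ml BSA, 0.5% salmon testes DNA and 0.03% Triton X-100. An Alexa488 anti-GST antibody detected bound protein, and the array was scanned at 488 nm. Binding intensity is taken as the highest Masliner-normalised natural-log median intensity across replicate spots of either probe orientation.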

Sequence | gcPBM binding intensity (ln)
TTGATAAAATGGGAGAAATTAAAAAGGAAAAAAAAA [CACACA_negctrl_site1279] | 8.29 ± 0.24
CTATTTTATATGTGCACACATATACACCCACAAATA [CACACA_site1131] | 9.025 ± 0.078
TATATATATATTATATGTACATAAATATTTATACTC [XGTACX_site114] | 9.4 ± 0.2
AAAAAAATAACAAAATGTATACAATATAACAAAAAT [GTGCAC_negctrl_site512] | 8.94 ± 0.4
AACATATACCCAGGTACATGCAAATATATATATTAT [TGCATGCA_site878] | 8.95 ± 0.42
ATATATATATATATGTGTACACAACAAAATAAAAAA [XGTACX_site7378] | 10.2 ± 0.26
TTTAAAAATTAATTCTGTACACATTTTTATTTTATT [XGTACX_site8] | 8.46 ± 0.24
TTCTTTCTTCAAAAGTGTACCAAATGTTAGAAAGGT [XGTACX_site4353] | 9.34 ± 0.31
TTTATTTATTATTAAAGTACTAAATCATATTATTAT [XGTACX_site992] | 8.11 ± 0.3
TATACATTATCTTATGCATGCGCATCTGCATATAAA [TGCATGCA_site266] | 9.63 ± 0.29
TATTTATATATTATGTGTCCACATGTAAGCTATCTT [XGTACX_site3887] | 8.57 ± 0.22
CCACTAATAAATATTACACACATATATATATATATT [CACACA_site3128] | 8.53 ± 0.32
TTTTCTTTTTTCTGTTGTACTAAAAATAATTTTGTA [XGTACX_site5171] | 8.78 ± 0.48
ATATATACATATAACACACACATATATATATATATA [CACACA_site2575] | 10.1 ± 0.49
AGTATAAATAAATCATAAACATATATATATATATAT [GTGCAC_negctrl_site356] | 9.99 ± 0.52
ATTCATTTCTATTTTACACACAATAAGTAACTTAAT [CACACA_site2850] | 8.69 ± 0.47
CTCATCCTTACATACACACACATATATATATATATA [CACACA_site103] | 10.2 ± 0.29
ATATTTAAATCGAAGGTGCGTATTTCCTTTTTTTTT [GTGCAC_site9632] | 8.56 ± 0.32
ATTATTATATATATAACACACATAATTATATACTTA [CACACA_site1563] | 8.52 ± 0.4
TCCTTAAAAATCTAAAAAGAAAAAAACATATATTTT [GTGCAC_negctrl_site123] | 8.04 ± 0.45
TATACCTATAAATACACACACATATATAAATATGTA [CACACA_site6625] | 8.38 ± 0.26
AAATAAAAACCATATCGTACAAAAATTTTTGTATTT [XGTACX_site7497] | 8.62 ± 0.35

Sequence | gcPBM binding intensity (ln)
ATATATATATATATATGTACTTAAAAATTTGTTTTG [XGTACX_site1514] | 10.1 ± 0.62
GATCACTGAATAAAGGCACACATCTGACTAATTTTT [CACACA_site66] | 8.36 ± 0.39
AAGTCAATTTTTTTTTTTTTTTTTTAACTTATTAAT [TGCATGCA_negctrl_site14] | 8.09 ± 0.46
AATGTATATAATATTAATATGTAAATATATAATCAA [CACACA_negctrl_site1683] | 8.4 ± 0.34
TGAATAAATATATATACACACCCATATATATATATA [CACACA_site8833] | 10.1 ± 0.28
TTAAAAAGTGCGTAGTGTACTAATATAAATAATACA [XGTACX_site2922] | 8.57 ± 0.16
TGTTAATTAAAGGACTGTACACTAATAATTCTATAA [XGTACX_site5195] | 8.5 ± 0.34
TCATATGTTTCATGTTGTACATTGAAAGTTTGGCTA [XGTACX_site3202] | 8.39 ± 0.36
AAATATGTACATATTATATATATATAATATATATTG [TGCATGCA_negctrl_site438] | 8.3 ± 0.4
GTTCTAATATATTGCACACGTAAAAATATAGGTAAT [CACACA_site886] | 8.83 ± 0.4
AAAAAAAAAATATATATATATATATATATATAATTT [GTGCAC_negctrl_site32] | 8.56 ± 0.13
AATAAATATAGATTCACACACAAACATATATAAATA [CACACA_site7814] | 8.55 ± 0.37
AAGAAAAAAATTTATACAAGAATTTTTTATTATTAA [TGCATGCA_negctrl_site587] | 8.01 ± 0.62
TAATTGTACGCCAATACACACAGAATTAGAATGTAG [CACACA_site102] | 8.71 ± 0.43
ATAAATAAATGGTGTTGTACTCTATTATATATATAT [XGTACX_site7835] | 9.48 ± 0.12
TTTTATTGTTGTTATACACACCATATAAAATATTTC [CACACA_site4983] | 8.55 ± 0.38
ATTCACTAAAAAATTGCATGCAATAAATTTTTTTTT [TGCATGCA_site962] | 9.68 ± 0.11
AATTGATTTATATATTGTACATATAAATTTATGTAT [XGTACX_site7785] | 8.31 ± 0.22
AAGAAAATTAAATTAACACACATAAATATATATATA [CACACA_site1664] | 9.72 ± 0.11
GAGTTATTTCTTATTTAAGCATTCTACATATATATA [CACACA_negctrl_site239] | 8.25 ± 0.16
ATTTTACATATTTGCACACATATATTTAAATACATA [CACACA_site4627] | 8.77 ± 0.24
ATATTTATCTTTTTATGTACATATGCCCCTTTTCTG [XGTACX_site673] | 9.13 ± 0.7

Sequence | gcPBM binding intensity (ln)
TCTTGGTTATTAAAAAAAAAAAAATATATTTTTCCT [TGCATGCA_negctrl_site445] | 8.09 ± 0.59
GTCCTTATGGATGATAAATTATTTTAAATATTCTAT [XGTACX_negctrl_site200] | 8.03 ± 0.38
AATAAAAAATATATGAGTACTAAATTGTTTTCTTAA [XGTACX_site8573] | 8.33 ± 0.49
TTGCATATTTCTAATTGTACATTATTTTATTTTATA [XGTACX_site8451] | 8.74 ± 0.42
GGGAAAATAAATAAAGTGCAGATATTAAAAGTTGTA | 8.85 ± 0.28
CTCAACGATAGAGAAACATGCAAGTATAAGCAACTA [TGCATGCA_site771] | 9.02 ± 0.49
CATAGATACATACACGCACACACATATATATATATA [CACACA_site13] | 9.97 ± 0.36
GTATTACCTTATTATTGTACTTTCATGATATATATG [XGTACX_site5382] | 9.02 ± 0.41
TTAATGAATGGACACACACACATATATATATATATT [CACACA_site5294] | 8.62 ± 0.39
AACATACATGTATATAGTACATATTACATCTGATAC [XGTACX_site3649] | 8.51 ± 0.52
ATGTAATTATAAGATTAATATACATAATTATATGTA [GTGCAC_negctrl_site458] | 8.1 ± 0.37
TACACAAGAAAATTCACACACACACCCATATATATA [CACACA_site3879] | 8.75 ± 0.34
CATATAAAAGGACACACACACACATATAAATATGTA [CACACA_site6568] | 8.53 ± 0.51
ATTTTTATAGAATGAACACACATATTATAGCATTTA [CACACA_site6842] | 8.45 ± 0.38
TGCTATTTTATTTATTCTTTTATAAAAGTATAATAT [XGTACX_negctrl_site358] | 8.64 ± 0.39
ATAAAAAAAATTTGCACACCTTCAAAGTAATATATA [CACACA_site1584] | 8.47 ± 0.25
AAAAAAAAAAAAAGTACATGCAATATGGATCTTAAA [TGCATGCA_site367] | 8.96 ± 0.6
TAATTTTTTTTTTTTTTTTTTGTACTTCATTTTTAT [CACACA_negctrl_site1395] | 8.18 ± 0.55
TATATATAAAAAAGCACACATACATACATACATAAT [CACACA_site890] | 8.9 ± 0.42
TTTTCACTTTTAAAAACATGCATACTTTATAAAATA [TGCATGCA_site967] | 8.56 ± 0.44
AACATTCTAAAACACACACACACATATATATATATA [CACACA_site1052] | 10.1 ± 0.42
TACACAAGCGGACACACACACATATATATATATATA [CACACA_site4832] | 10.3 ± 0.13

Sequence | gcPBM binding intensity (ln)
AAAAAAAAAAAACACACACACACATAAATATATATA [CACACA_site149] | 8.55 ± 0.41
TATTAACATATATAAAGTACATTAAACAACATTGTA [XGTACX_site7667] | 8.53 ± 0.4
TGTAAATTTGGCATCACACATAAATAAACATATAAA [CACACA_site4497] | 8.74 ± 0.35
AAAAGAAATATTTATACACACACACTAACATATATA [CACACA_site8580] | 8.73 ± 0.42
TTATCATTTTAATGGTGTACTCAATAAAAACTTTAA [XGTACX_site4595] | 8.24 ± 0.099
TTATATATAATTACATGTACGTAGTATTATTTAAAT [XGTACX_site3418] | 8.56 ± 0.43
GTGAAAAAAAACATATGTACTTATACACTAATCTAT [XGTACX_site7600] | 8.49 ± 0.35
ATGTCTATAATAAGAACACACATATATTTAATTTAA [CACACA_site7394] | 8.21 ± 0.45
TGGTAAAGGAGCAAGATGATAAATCTCCATAACTTT [CACACA_negctrl_site492] | 8.28 ± 0.6
GTTGGTACCTTACTTTTACACACTTTTTTTTTTTTT [CACACA_site8441] | 8.88 ± 0.59
TATATATATATGTATACACACATACAAATATGTAAA [CACACA_site9238] | 9.81 ± 0.16
CTATATTCGTTTAATAGTACATATATAACTAGACAA [XGTACX_site5770] | 8.48 ± 0.37
ACTACATTATGTCATACATGCATACATACGTGGTTT [TGCATGCA_site732] | 8.92 ± 0.3
CATTAAAAGTATAATTGTACTTTTCATTTATATATT [XGTACX_site7536] | 8.38 ± 0.29
AGTAATTTAAGGAATACACACAAGAAAAAAATAAGA [CACACA_site6177] | 8.96 ± 0.54
TAATATATATATATATGTACATATATATTATGTATA [XGTACX_site4690] | 8.4 ± 0.27
TTCTCAAAATTAAAATAACAGATTAACGAACTAACG [CACACA_negctrl_site1720] | 8.56 ± 0.36
AGATTATTTAGAATGTGTACATATTACACATACATG [XGTACX_site8634] | 8.51 ± 0.25
CATACATACAAACACACACACACACCCATATATATA [CACACA_site2918] | 8.79 ± 0.23
GTATACCTTTTGACATGTACGTATGTATATTTGGGT [XGTACX_site720] | 8.85 ± 0.42
TTTTTAACCAAACATCAAAACATATTTTTTTGTTAT [CACACA_negctrl_site385] | 8.31 ± 0.39
